Among all 52,000 compounds or so, about 1,700 (3.3%) were called active. No stated cut-off is given here; in the data, active means survival mostly below about 52% (no sharp cut-off); inactive means mostly above about 56%. The list shows a part of the results.

56 compounds from PubChem BioAssay AID463173 (ICCB-Longwood Screening Facility, Harvard Medical School, 2010) can be followed below.

The subject of this test is Wild type. Briefly: S. aureus survival, RN4220 and DeltatarO strains – OD600, teichoic acid synthesis inhibitors, primary screen (AID 463173). Particulars: S. aureus RN4220 wild type/DeltatarO growth, OD600, 18 h, hits give low values, screened at 18.75 µg/mL (by protocol).
As for `Cc1cc(=S)[nH]c2ccccc12`, the survival is inactive: 83%.
`CCOc1cccc(C2c3[nH]c4ccccc4c3CCN2C(=O)c2ccccc2F)c1` (stereo unspecified): the survival was inactive: 77%.
With `CC(=O)c1ccc(NC(=O)Cn2cnc3nc4c(cc3c2=O)CC(C)CC4)cc1` (stereo unspecified), the survival is inactive: 47%.
Turning to `CCOc1ccccc1C(=O)Nc1ccc(S(=O)(=O)Nc2onc(C)c2C)cc1`, the survival was inactive: 77%.
With `CCOC(=O)c1cnc2cc(C(F)(F)F)ccc2c1N1CCN(c2cccc(Cl)c2)CC1`, the survival is inactive: 55%.
In the case of `CCOc1cc(CNC(=O)c2ccc(Cn3c(=O)c4cccn4c4cccnc43)cc2)ccc1OC`, the survival is inactive: 86%.
`Cc1ccc(NC(=O)CSc2nc3ccc(NC(=O)c4cccs4)cc3s2)cc1`: the survival is inactive: 90%.
For the compound `COc1ccc(S(=O)(=O)c2cn(CC(=O)Nc3cc(C)ccc3C)c3ccccc3c2=O)cc1`, the survival was inactive: 92%.
In the case of `COc1ccc(S(=O)(=O)n2nc(-c3ccco3)nc2NCc2ccc(N(C)C)cc2)cc1` it was inactive: 83%; in that of `CCN1CCN(Cc2nc3cc(NC(=O)c4cc(OC)c(OC)c(OC)c4)ccc3n2CC)CC1`, inactive: 83%.
Consider `Cc1ccc(CNC(=O)N2CCC(CN3CCC(C)CC3)CC2)cc1`, for which the survival is inactive: 101%.
In the case of `COc1ccc(NC(=O)Cn2cnc3sc(C)c(S(=O)(=O)N4CCN(c5ccccc5OC)CC4)c3c2=O)cc1OC`, the survival was inactive: 73%.
With `CCC1CN(C(=O)NCc2ccc(C)cc2)c2cc(Cl)ccc2O1` (stereo unspecified), the survival was inactive: 111%.
In the case of `Cc1ccc2scc(N3CCc4ccccc4C3)c(=O)c2c1` it was inactive: 102%; in that of `CCc1ccccc1NC(c1nnc(-c2cccc(F)c2)o1)c1ccc(F)cc1Cl` (stereo unspecified), inactive: 86%; in that of `CC(C)c1ccc(NC(=O)CN2C(=O)COc3ccc(S(=O)(=O)N4CCCCC4)cc32)cc1`, inactive: 84%.
Regarding `Cc1ccc(C)c(N2CCN(C(=O)Cn3ncc4c(=O)oc5ccccc5c43)CC2)c1`, the survival is inactive: 71%.
As for `COc1cc(OC)cc(-c2nc3nc(C)c(CCC(=O)Nc4ccc(C)c(C)c4)c(C)n3n2)c1`, the survival is inactive: 90%.
With `Cc1cccc(C(=O)NCC(=O)OCc2cc(=O)n3nc(CC(C)C)sc3n2)c1`, the survival was inactive: 119%.
Take `COc1cccc(C(=O)N2CCN(CCc3ccncc3)CC2)c1`: the survival is inactive: 100%.
Consider `Cc1cccc(-c2cc3nc4c(c(NCCN(C)C)n3n2)CCC4)c1`, for which the survival is inactive: 91%.
For `CN(C)c1ccc(CNC(=O)c2cccc(NC(=O)N3CCSc4ncccc43)c2)cc1`, the survival was inactive: 71%.
As to `Cn1c(=O)c2c(-c3cccc(Br)c3)n(C(C)(C)CO)cc2n(C)c1=O`, the survival is inactive: 87%.
On to `S=C(NCCCN1CCOCC1)N1CCN(c2ccccc2)CC1`, for which the survival is inactive: 104%.
The value for `CCCN1CC=C2C(C#N)=C(N)C(C#N)(C#N)C(C(C)C)C2C1` (stereo unspecified) was inactive: 110%; that for `CCC(C(=O)NCc1ccco1)n1nc(C)c2c(C)n(-c3ccc(C)cc3)nc2c1=O` (stereo unspecified) was inactive: 75%; that for `C=CCn1c(SC(CCO)C(=O)NCc2ccco2)nc2sc3c(c2c1=O)CCC3` (stereo unspecified) was inactive: 99%.
Regarding `COc1cccc2c1cc1c(=O)n(CC(=O)N3CCN(c4ccc(Cl)cc4)CC3)nc(C)n12`, the survival was inactive: 127%.
Turning to `Fc1ccc(Nc2ncnc3onc(-c4cccc(Cl)c4)c23)c(F)c1`, the survival is inactive: 79%.
In the case of `Cc1ccc(S(=O)(=O)NC2(C(F)(F)F)NC(=O)N(CCc3ccccc3)C2=O)cc1` (stereo unspecified) it was inactive: 67%; in that of `O=C1N(Cc2ccccc2)c2ccc(Cl)cc2C1(O)c1c[nH]c2ccccc12` (stereo unspecified), inactive: 53%.
In the case of `Cc1cc2nc(-c3ccc(OCc4ccccc4Cl)cc3)cc(C(F)(F)F)n2n1` it was inactive: 42%; in that of `COc1ccccc1NC(=O)Cn1c(SCC(=O)N(C)c2ccccc2)nc2ccccc21`, inactive: 123%.
As for `Cc1ccc(NS(=O)(=O)c2ccc3c(c2)n(C)c(=O)n3C)cc1C`, the survival was inactive: 70%.
In the case of `CCOc1ccccc1NC(=O)CSc1nnc2[nH]c(=O)cc(-c3ccccc3)n12` it was inactive: 120%; in that of `Cc1cc(C)cc(NC(=O)Cn2cc(S(=O)(=O)NC(C)(C)C)c(S(=O)(=O)NC(C)(C)C)c2)c1`, inactive: 66%.
The value for `O=C(NCCn1cc(SCc2ccccc2Cl)c2ccccc21)c1cccs1` was inactive: 60%; that for `O=C(Nc1ccccc1Cl)C1CCN(c2nc3ccccc3nc2C(F)(F)F)CC1` was inactive: 90%; that for `O=C(Nc1ccc(F)c(F)c1)c1cc(S(=O)(=O)NC2CCCCCC2)ccc1F` was inactive: 53%.
Consider `COc1ccc(-n2nc(C(=O)N3CCCC(C)C3)c3c4ccccc4n(C)c3c2=O)cc1` (stereo unspecified), for which the survival is inactive: 95%.
In the case of `CCc1ccc(C(=O)c2cn(CC(=O)NC3CCCCC3)c3nc(C)ccc3c2=O)cc1` it was inactive: 74%; in that of `O=C(c1ccccc1)n1nc(-c2ccccc2)nc1NCc1ccc(F)cc1`, active: -4%; in that of `CCOC(=O)c1cc2c(=O)n3ccccc3nc2n(C(C)C)c1=NC(=O)c1cc2ccccc2o1`, inactive: 61%.
`COc1ccc(CNC(=O)CN2C(=O)COc3ccc(S(=O)(=O)Nc4ccccc4)cc32)cc1`: the survival was inactive: 87%.
In the case of `CNC(=O)c1c(NC(=O)c2ccc(S(=O)(=O)N3CCCCC3)cc2)sc2c1CCC2` it was active: -2%; in that of `OCCNc1nc(-c2cccnc2)nc2ccccc12`, inactive: 119%.
For `COc1ccc(-n2ccnc(NCc3ccccc3OC)c2=O)cc1`, the survival was inactive: 85%.
In the case of `CCOc1ccc(N2CC(NC(=O)/C=C\c3ccc4c(c3)OCO4)CC2=O)cc1` (stereo unspecified), the survival is inactive: 71%.
Consider `COc1ccc(-c2cc(C(F)(F)F)nc(S(C)(=O)=O)n2)cc1`, for which the survival is inactive: 98%.
With `CC(C)(C)C(=O)Nc1ccc2nc(SCC(=O)N3CCOCC3)sc2c1`, the survival is inactive: 87%.
As for `O=S(=O)(Nc1cc(F)ccc1F)c1ccc2[nH]c3c(c2c1)CCCC3`, the survival is inactive: 69%.
Turning to `CCc1cc2cc(C)cc(C)c2nc1Cl`, the survival was inactive: 101%.
In the case of `CSc1nc2c(c(=O)[nH]1)C(c1cccc(F)c1F)CC(=O)N2` (stereo unspecified) it was inactive: 115%.
In the case of `NS(=O)(=O)c1ccc(CCNc2nccn(-c3cccc(C(F)(F)F)c3)c2=O)cc1`, the survival is inactive: 99%.
The value for `COc1cccc(CNC(=O)c2ccc3c(c2)c(C)c(C)n3Cc2ccccc2)c1OC` was inactive: 70%; that for `CC(C)c1ccc(NC(=O)CS(=O)(=O)c2cccc3nsnc23)cc1` was inactive: 74%.
